Reference: a collection of fitness landscapes (doi:10.1016/j.celrep.2020.107928)
The full ranking holds about 81,000 sequences; the median of “one-hybrid fitness for binding NBS DNA” is about -0.1, and the highest 2% start at about 0.36. The list shows a part of the results.

B1: Caulobacter ParB omega fusion; a variant is named by its letters at X, in order, B8GW30 (parent)
chain: MESVVVGEPGMSEGRRGLGRGLSALLGEVDAAPAQAPGEQLGGSREAPIEILQRNPDQPRRTFREEDLEDLSNSIREKGVLQPILVRPSPDTAGEYQIVAGERAWRAAQRAGLKTVPIMVRELDDLAVLEIGIIENVQRADLNVLEEALSYKVLMEKFERTQENIAQTIGKSXSHVANXMRLLXLPDEVQSYLVSGELTAXHARAIAAAADPVALAKQIIEGGLSVRETEALARKAPNLSAGKSKGGRPPRVKDTDTQALESDLSSVLGLDVSIDHRGSTGTLTITYATLEQLDDLCNRLTRGI

Variants of: B1
Experiment: one-hybrid fitness for binding NBS DNA (the Noc-binding site; scaled: cognate 1, non-cognate 0); higher = stronger binding
Conditions: with NBS DNA site
Outline: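 In E. coli USO, a HIS3 reporter with its site placed 19 bp from the promoter was used to select Caulobacter ParB variants randomised at four specificity codons. Growth lasted 48 hours at 37°C on histidine-free M9 containing 0.1 mM IPTG and 5 mM 3-AT. Fitness was taken as the log change in variant-to-wild-type read ratio from Illumina sequencing of pre- and post-selection plasmids, rescaled between the non-cognate and cognate sites.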

one-hybrid fitness for binding NBS DNA, 0.44:
QVNT

one-hybrid fitness for binding NBS DNA, 0.239:
RAVS

one-hybrid fitness for binding NBS DNA, 0.274:
KKHT

one-hybrid fitness for binding NBS DNA, 0.38:
RIQR

one-hybrid fitness for binding NBS DNA, 0.206:
QQNM

one-hybrid fitness for binding NBS DNA, 0.213:
GVRR

one-hybrid fitness for binding NBS DNA, 0.26:
QKKP

one-hybrid fitness for binding NBS DNA, 0.661:
RRYS

one-hybrid fitness for binding NBS DNA, 0.436:
QMKK

one-hybrid fitness for binding NBS DNA, ≤ 0.2:
PVPN
LTHF
SGSY
GVYS
GANA
LTNN
AKPQ
DTCE
QNWR
SPGP
ICPG
PMTG
FPQG
DQTV
FCYP
VIDT
NAAS
SRSD
ANLC
MLNS
HKWG
RIER
VYVR
LKNM
CCKC
RFNI
QFNL
KFHR
NTQC
HESS
RSAE
PSMR
VVVW
FMFS
SFSY
QDKD
LNDT
RQAK
PAKY
SRAE
DLRG
PKCT
FDNN
GDYS
RFII
VGGR
DSVF
IRQG
LNVL
NVWR
RNSC
RHHA
MGAV
RQTH
RVFP
VYIG
ATDC
RENM
TYSC
FEQR
MKKG
ATLT
FTIS
PVLS
RSDP
RHYH
REST
FNRD
PHLL
CSGY
EFHL
YSRC
CSPR
WYEY
LRII
ILRA
CQSS
QCLW
NNGN
SPAK
ILWW
QWLA
GDVI
KVYC
AFQG
PASI
RKQD
ESIY
DGHT
WNVG
PDQL
SNNT
FRRL
DTPS
PLSL
HLFR
CAPI
TNYQ
QKCD
TFSA
GADG
ARWT
WGKS
VTMR
LALD
LPWS
IMPV
HCMC
PRAI
PRKH
GGAC
NYPR
CHTK
TARF
ATHG
SYQV
DSQS
LSTF
TVSF
TCTV
CQSA
NCKD
HQRM
HESG
ERTR
RVMK
NTHG
NCPR
PWDY
STAN
LAPD
RIMG
CLVT
LPQA
YKLC
ENCR
VDLE
VLPH
QIDE
YMSG
PVTK
YDQM
ILAM
IRNF
ATGA
KKQP
LTCA
ACKH
QAQC
PHKL
TSDS
GCDR
FTHC
TATT
KCGR
IEWL
SKAH
TPTG
CYGG
PGCE
GWSN
SWPS
SWQM
QQSM
TKHW
PNSA
KRYF
GTYR
RIIY
VPNC
LMGD
QLVD
LLEV
MRKK
HRGM
PRDA
PKAM
NECC
QPKI
QSPD
PRVN
CSPT
SQQC
IVAD
LPEV
DANS
HSEG
HRPY
MTKS
HDTP
VHNG
SLMQ
NRKN
QMLD
SREV
MMAV
DGGT
EHLY
DATW
DAIN
FWSS
YVKV
PLRA
DRFG
WQFR
KKVN
NLEW
IHLY
RTAY
MWNT
QGDR
HHLD
ALPV
QEGS
AKQW
DATV
VHVG
LKAE
LIKL
ADWS
IFLM
ALGV
GMPE
CNKT
CYRC
QDIR
SSAT
WHKT
QQVY
QVYM
LSRI
AILT
TLCC
DEPS
DLNV
KWWR
LEAC
THGI
CYWL
HWYM
HVIC
VAWS
PSER
LVPD
QAMF
KRGC
LPRF
ILSR
FGHC
DTMQ
RYNF
MEPC
PQCT
YHHA
IQGS
DPMA
WMTC
SGCG
QDSN
TWLA
MRLP
ADDH
LDPA
VWTL
EWKR
NDCA
KMVT
TITP
QTIQ
CIFR
TEIG
IGSW
VYER
HAAC
FQSI
LFET
KPDI
TCTP
DHDY
EFRS
QNVT
GDSK
AGSD
SFIT
PWCC
WSKF
MCPS
RNYE
LAPP
DVPK
FSMS
AKYW
PQHT
YADF
FCNR
MWWG

one-hybrid fitness for binding NBS DNA, 0.867:
QIRR
